# Measurements taken from PubChem BioAssay (NCI).
# Several values for one entry are separate records, joined by “and”; a condition that tells them apart may be missing. Equal values may be shown once.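 Cells were grown in 96-well plates and exposed to each compound for 48 hours at five concentrations; endpoints were interpolated linearly between bracketing concentrations, or set to the highest concentration if not reached. The concentration for 50% growth inhibition is given as GI50. TGI marks complete inhibition of growth.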
# Tested on: NCI-H322M lung
# Assay: growth of human tumour cells (NCI), 48 h
SMILES,GI50,TGI
CC(=O)[CH-]C(=O)c1ccccc1.CC(=O)[CH-]C(=O)c1ccccc1.C[C@]12CCC(=O)C=C1CC[C@@H]1C2CC[C@@]2(C)C1CC[C@]2(C)[O-].C[C@]12CCC(=O)C=C1CC[C@@H]1C2CC[C@@]2(C)C1CC[C@]2(C)[O-].Cl.[Ti+4] (stereo not given in full),30.2 µM,> 100 µM
C(=C\N1CCCCC1)/c1nnnn1-c1ccccc1,–,> 100 µM
Cn1ncc(Cl)c1-c1cc(C(=O)N[C@H](CN)Cc2ccc(F)c(F)c2)oc1Cl,3.75 µM and 2.51 µM,17.5 µM and > 10 µM
O=C1Nc2ccccc2Nc2ccncc21,–,> 100 µM
CCOC(=O)C1(C)CCCCC(=O)N1 (stereo not given),–,> 100 µM
O=[N+]([O-])c1ccc(O)c(/C=N/NC(=S)N2CCCCC2)c1,–,> 62.3 µM
NC(Cc1ccc(S(=O)(=O)O)cc1)C(=O)NC(Cc1ccc(S(=O)(=O)O)cc1)C(=O)O (stereo not given),–,> 100 µM
COc1ccc(-n2sc3ncccc3c2=O)cc1,–,> 100 µM
N#C/C(=C/NC(=S)c1ccncc1)C(N)=O,–,> 100 µM
COc1cccc(-c2cc(=O)c3ccccc3[nH]2)c1,–,> 100 µM
CCN(CC)c1ccc(/C=C/C=C2C(=O)NC(=S)NC2=O)cc1,–,> 100 µM
N#CC1c2ccccc2C=CN1C(=O)N(c1ccccc1)c1ccccc1 (stereo not given),6.95 µM,20.2 µM
Cc1ccc(NC(=O)C(=O)CC(=O)c2sc(Nc3c(C)cccc3C)nc2C)cc1C,–,> 100 µM
COc1ccc(/C=C/C(=O)c2sc(-n3nc(-c4ccccc4)cc3-c3ccccc3)nc2C)cc1,–,> 100 µM
CN1C(=O)C2(c3ccccc31)N(c1ccc(Cl)cc1)C(=O)C2(c1ccccc1)c1ccccc1 (stereo not given),> 100 µM,> 100 µM
NS(=O)(=O)OCCCCCCCOS(N)(=O)=O,–,1990 µM
COc1cccc(/C=N/[N-]C(N)=O)c1[O-].[Cu+2].[OH3+].c1ccc(-c2ccccn2)nc1,–,> 88.1 µM
CC[C@H](C)[C@H](NC(=O)CN(C)C)C(=O)N(C)[C@H](C[C@@H](OC(C)=O)c1nc(C(=O)NC23CC(C(=O)OC)(C2)C3)cs1)C(C)C,1.02 µM,> 25 µM
CC(=O)[O][Hg][c]1c(C)c(C)cc(C)c1C,1.87 µM,3.68 µM
S=C(Nc1ccc2cn[nH]c2c1)Nc1ccc2cn[nH]c2c1,–,> 100 µM
C[N+]1(CCN[N+]2(C)CCCCC2)CCc2ccccc2C1 (stereo not given),–,> 100 µM
CC(=O)c1c(C)[nH]c(-c2nc3ccc(N4CCN(C)CC4)cc3[nH]2)c1-c1ccccc1,2.26 µM,31.9 µM
C=CC(=O)N1CC2(CC(n3nc(-c4ccc5c(cnn5C)c4)c(-c4c(Cl)c(C)cc5[nH]ncc45)c3C)C2)C1,5.21 µM,16.8 µM
CC(=O)Oc1ccc(/C=C/C(=O)O[C@@H](C(=O)O)[C@@H](OC(=O)/C=C/c2ccc(OC(C)=O)c(OC(C)=O)c2)C(=O)O)cc1OC(C)=O,–,> 100 µM
COc1nnc2ccc(N3CCC(c4ccc(OCCN5CCN(C)C(=O)[C@H]5C)cc4)CC3)nn12,0.207 µM,> 100 µM

SMILES,GI50,TGI
CC1=C(Nc2ccc(N3CCN(C)CC3)cc2)C(=O)c2cncnc2C1=O,16.1 µM,32.5 µM
COc1cc2c3c(n(C)c(=O)c2cc1OC)-c1ccc(C#N)cc1C3=O,> 100 µM,> 100 µM
O=C(NNc1ccccc1)/C(=C/c1ccc2c(c1)OCO2)NC(=O)c1ccccc1,–,> 100 µM
CCn1c(-c2nonc2N)nc2cncc(C(=O)N3CC[C@H](N)C3)c21,> 25 µM,> 25 µM
Cc1c(/C=N/N(C)C)oc2c1cc(O)c1ncccc12,–,7.23 µM
O=C(NC(=S)NC(=O)c1cc(O)c(O)c(O)c1)c1cc(O)c(O)c(O)c1,–,49.4 µM
Cc1nc2c(=S)n(C)ncc2[nH]1,–,> 100 µM
Cn1nc(-c2ccccc2)c2c(/C=C/c3ccccc3)onc2c1=O,–,> 100 µM
COC(=O)CSSCc1ccc([N+](=O)[O-])cc1,–,51.5 µM
COc1cc(-c2nn(-c3cccc(NC(=O)c4ccc(Cl)c(C(F)(F)F)c4)c3)cc2-c2ccncc2)ccc1Cl,14 µM,> 32.5 µM
ClC(Cl)[Si]12OCCN(CCO1)CCO2,–,> 100 µM
O=C(CC(Cl)=C(Cl)Cl)c1cccc(Cl)c1Cl,3.82 µM,> 100 µM
CC[n+]1c(/C=C/C=C2\N(C)c3ccccc3C2(C)C)sc2ccccc21,6.47 µM,20.6 µM
CC(SC(=O)Nc1ccc(N=Nc2ccccc2)cc1)C(=O)O (stereo not given),–,> 100 µM
Cc1cc([N+](=O)[O-])c2ccccc2[n+]1[O-],0.279 µM and 0.26 µM,1.72 µM and 2.6 µM
CNc1ncc(-c2nnnn2-c2ccccc2)c(CN(C)C)n1,–,> 100 µM
CCOC(=O)N(c1ccccc1)N(CC)C(=O)/C(C)=N/Nc1ccc([N+](=O)[O-])cc1,–,49.7 µM
C/C1=C\C=C(\C(C)C)CC/C(C(=O)O)=C\CC/C(C)=C/CC1,–,39.4 µM
CC(=O)NC(CC(C)C)C(=O)NC(Cc1ccccc1)C(=S)N1CCCC1 (stereo not given),–,> 100 µM
CC(=O)NNc1nc(C)c(C(=O)NNC(=O)C(=O)Nc2ccc(Cl)cc2Cl)s1,–,> 100 µM
c1cc2c(cn1)Nc1ccncc1S2,40.5 µM,> 100 µM
O=C(NNc1nc(-c2ccccc2)cs1)C(F)(F)F,–,> 100 µM
Cc1cc(N2CCN(C)CC2)n2nc(-c3ccc(Cl)cc3)nc2n1,–,> 100 µM
N#C[C@H](c1nc2ccccc2s1)c1nc2ccccc2nc1Cl,–,> 100 µM
COc1ccc(/C=N/n2cnc3[nH]c(C)c(Cc4ccccc4)c3c2=N)cc1,–,> 100 µM

SMILES,GI50,TGI
CN(C)CCNC(=O)c1cccc2c1Oc1c(cccc1[N+](=O)[O-])O2,–,24.5 µM
N=c1c2c(=N)n3c(nc2nc2n1-c1ccccc1Sc1ccccc1-2)sc1cc(Cl)ccc13,2.54 µM,12.2 µM
COc1cc2nc(-c3cccs3)[nH]c(=O)c2cc1OC,–,> 100 µM
COc1ccccc1C[C@@H]1OC2(C=CC(=O)C=C2)O[C@H]1Cc1ccccc1OC,–,> 50 µM
CSC(=Nc1ccccc1)/N=C(\SCc1ccccc1)N(C)C,–,3.9 µM
O=C(CN1C(=O)S/C(=C\C(Cl)=C\c2ccccc2)C1=O)NC1C=CS(=O)(=O)C1 (stereo not given),2.92 µM,24 µM
Cc1ccc(S(=O)(=O)NC(CN)C(=O)O)cc1 (stereo not given),–,> 100 µM
CC(=O)OC1COC(n2c(=S)n(-c3ccccc3)c(=O)c3ccccc32)C(OC(C)=O)C1OC(C)=O (stereo not given),–,> 100 µM
Cc1ccc(S(=O)(=O)N/N=C(/c2nc3ccc([N+](=O)[O-])cc3[nH]c2=O)C(O)c2ccc(C(O)/C(=N\NS(=O)(=O)c3ccc(C)cc3)c3nc4ccc([N+](=O)[O-])cc4[nH]c3=O)cc2)cc1 (stereo not given),–,> 100 µM
CN1CSC(=S)N(Cc2ccccc2)C1,19.8 µM,> 100 µM
CCOC(=O)COc1ccc2c(C)cc(=O)oc2c1,–,> 100 µM
CN(CCCNC(=O)CCOCCOCCOCCNC(=O)Cc1ccc2ccc3cccc4ccc1c2c34)CCCNc1cc(-c2ccc3ccccc3c2)nc2ccccc12,0.675 µM,2.09 µM
c1cnc(N2CCN(Cc3c[nH]c4ccccc34)CC2)nc1,–,> 100 µM
Brc1ccc2ns[s+]c2c1,–,> 100 µM
COc1cccc(/C=C2\COc3ccc(-c4ccccc4)cc3C2=O)c1,1.98 µM,6.29 µM
Cn1c(N/N=C/c2ccccc2)nc(-c2ccc([N+](=O)[O-])cc2)c(C#N)c1=O,–,> 100 µM
O=C(CCc1ccccc1)ON1C(=S)C(c2ccccc2)(c2ccccc2)N=C1Sc1ccccc1,–,> 100 µM
COc1ccc(/C(C#N)=C2C=C/C(=N/O)c3ccccc3\2)cc1,0.579 µM,28.4 µM
O=C1NC(=NCCCc2ccccc2)S/C1=C\c1ccc2ncccc2c1,4.41 µM,> 18.6 µM
O=C1C(CN2CCOCC2)CCCC1CN1CCOCC1 (stereo not given),–,18.3 µM
CC1=C(C(=O)Nc2ccc(Cl)c(C(=O)OC(C)C)c2)SCCO1,–,> 77.4 µM
CC1CC(=O)N(N(C)C)C(C#N)(C#N)C1(C#N)C#N (stereo not given),–,> 100 µM
CN(c1ccccc1)c1c(Cl)c(=O)oc2c1ccc1occc12,–,> 100 µM
O=S(=O)(c1cnccc1N1CCN(CCO)CC1)N1CCCC1,–,> 100 µM
CCc1ccccc1NNc1cc(=O)[nH]c(=O)[nH]1,–,54 µM

SMILES,GI50,TGI
CC1(c2ccc(Cl)cc2)C2C(=O)NC(=O)C1C(=O)NC2=O (stereo not given),–,> 100 µM
O=C1Nc2ccccc2/C1=c1\[nH]c(=O)/c(=C\c2ccc(OCc3ccccc3)cn2)[nH]c1=O,–,> 100 µM
CCCC(CCN)(CCN)[N+](=O)[O-],–,> 100 µM
NC(=O)NC1C(C(N)=O)N(Cc2ccccc2)C(=O)N1Cc1ccccc1 (stereo not given),–,> 100 µM
Nc1ncnc2c1ncn2C1OC(CO)C(O)C1N (stereo not given),–,> 100 µM
CC(=N\N)/C(C)=N/N=C(C)/C(C)=N/N=C(C)/C(C)=N/N,–,> 100 µM
CCOC(=O)c1cnc2c(C)cccc2c1Nc1ccc(C(C)=O)cc1,30.8 µM,> 100 µM
CN(C)c1cccc(NC2=NCCO2)c1,–,> 100 µM
CCCCCCC[CH2][Sn]1([CH2]CCCCCCC)[O]C(=O)c2cccnc2[O]1,> 100 µM,> 100 µM
CN(CC(=O)N(Cc1ccc(C2CCCCC2)cc1)c1ccc(C(=O)O)cc1)S(=O)(=O)c1c(F)c(F)c(F)c(F)c1F,1.89 µM,4.27 µM
COC(OC)[C@@H]1OC[C@@H](O)[C@@H]1n1cnc2c(N)ncnc21,–,> 100 µM
CN(C)/N=C1\CC(c2ccccc2)C(C#N)(C#N)C1(C#N)C#N (stereo not given),–,53.5 µM
COc1cc(N(Cc2ccc3oc(=O)c(-c4ccccc4)nc3c2)Cc2ccc3oc(=O)c(-c4ccccc4)nc3c2)cc(OC)c1OC,–,> 10 µM
CC(=O)N1CCn2c1nc1cc(Cl)ccc12,–,63 µM
C#CCOc1ccc2ncnc(Nc3ccc(NC(=O)C=C)cc3)c2c1,> 100 µM,> 100 µM
O=C(Nc1nc2ccccc2s1)Nc1ccc([N+](=O)[O-])cc1Cl,3.22 µM,10.3 µM
O=C(OCC(Cl)(Cl)Cl)O[C@@H]1CCCC1(c1ccccc1)c1ccccc1,–,> 100 µM
CCCCCCCCCCCC[n+]1ccc2ccccc2c1,1.99 µM,4.39 µM
CN1c2ccccc2N(C(=O)c2ccccc2)C(CC(=O)O)c2cccn21 (stereo not given),–,> 100 µM
CC(=O)O[C@H]1CC[C@@]2(C)C(=CC[C@@H]3C2CC[C@]2(C)Nc4nc5ccccc5cc4CC32)C1 (stereo not given in full),–,21 µM
CCCCCCCCCCCCCC[C@@H](O)[C@H]1CC[C@H]([C@H]2CC[C@H]([C@H](O)CCCCCC[C@@H](O)CC3=C[C@H](C)OC3=O)O2)O1,3.45 µM,> 25 µM
CCOc1cc(NC(C)=O)ccc1C(=O)NN1C(=O)CSC1c1ccccc1 (stereo not given),–,> 100 µM
O=C1c2cn[nH]c2C(c2ccccc2)N1c1ccccc1 (stereo not given),–,> 10 µM
C[Si](C)(C)C1=C([Si](C)(C)C)C(Cl)(Cl)C1=O,–,29.1 µM
